The other results are listed elsewhere or left out.

In this assay the target is T1, OsWOX13 (Oryza sativa, UniProt Q5QMM3 1-267).
T1 sequence: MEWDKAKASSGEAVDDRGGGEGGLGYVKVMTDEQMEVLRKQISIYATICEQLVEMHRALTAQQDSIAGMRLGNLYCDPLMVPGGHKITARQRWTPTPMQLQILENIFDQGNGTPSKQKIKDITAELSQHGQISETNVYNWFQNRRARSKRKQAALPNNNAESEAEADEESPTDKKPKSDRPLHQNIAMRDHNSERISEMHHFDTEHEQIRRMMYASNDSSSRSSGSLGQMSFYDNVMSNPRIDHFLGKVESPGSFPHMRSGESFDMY
Nature of the assay: protein-binding microarray (RPBM); PBS, 2% BSA, 51.3 ng/ul salmon testes DNA, 50 uM zinc acetate, 200 nM TF, 25 C, 1 h; high values mean tight binding. The settings on record: protein: recombinant; tags: N-terminal polyhistidine and DsRed monomer fusion (pET32a); label: CyDye5-dUTP incorporated in the synthesized complementary strand; 3' TTTTT single-stranded linker to array surface; dsDNA, one strand shown. The method in brief:
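The binding signal for each feature is its fluorescence intensity in arbitrary units. An Axon 4000B scanner was used to read a custom Agilent array that had been made double-stranded with Cy5-dUTP primer extension, blocked with 2% BSA, incubated at 25 °C for 1 h with 200 nM protein in PBS, 2% BSA, salmon testes DNA and 50 µM zinc acetate, and washed. The protein was an N-terminal polyhistidine–DsRed transcription factor fusion from E. coli BL21-CodonPlus, purified on Ni–NTA.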
Regarding “TATGATTGACATGTGAGCTCCACCACTCTCGGGCCCACATCGGAGTCACCTAGTGCAG”, the binding signal was 34000 fluorescence intensity (a.u.).

Turning to “TTTTAGATTTATTACATTATGAAATGGATATGGCGTGGAGCGGAGTCACCTAGTGCAG”, the binding signal is 9740 fluorescence intensity (a.u.).

In the case of “AAGATTATAACAGAGTGACAACCAACTCATCACAGAAAATCGGAGTCACCTAGTGCAG”, the binding signal is 5190 fluorescence intensity (a.u.).

Consider “TTGGGTTTGAATCCAATCACCGGATAATCACTCGAGTCTACGGAGTCACCTAGTGCAG”, for which the binding signal is 10900 fluorescence intensity (a.u.).

As for “TCCATGTACTATCAATCTAAACATATCTCTATCCAGATTCCGGAGTCACCTAGTGCAG”, the binding signal was 5970 fluorescence intensity (a.u.).

“TTGTAGAATTAATTAAATAAACTGTATATATATATATGTGCGGAGTCACCTAGTGCAG”: the binding signal is 14600 fluorescence intensity (a.u.).

Take “GCTTAATCTTCTTTAATAAATGATCCTTCCTCATTGTGGTCGGAGTCACCTAGTGCAG”: the binding signal is 4240 fluorescence intensity (a.u.).

Turning to “CTGAAATGATTTTCATTTGATTCAAATGGGCCTAAGAATTCGGAGTCACCTAGTGCAG”, the binding signal was 17200 fluorescence intensity (a.u.).

For “CCGACAGAAATTTAATTGAAATTTGCCAAAGTTTCATGTTCGGAGTCACCTAGTGCAG”, the binding signal is 25300 fluorescence intensity (a.u.).

As to “TTTACAAAATAATTATCAAGACCACAAATTAACACTTCAACGGAGTCACCTAGTGCAG”, the binding signal is 4720 fluorescence intensity (a.u.).

With “CAAATTTGACATACTTTTATATCACAATTTTAAGAAGCTTCGGAGTCACCTAGTGCAG”, the binding signal was 14300 fluorescence intensity (a.u.).

Regarding “TAAATTCAAATTTAAATTTGAATCGGGTATGTAAACTTTTCGGAGTCACCTAGTGCAG”, the binding signal is 7760 fluorescence intensity (a.u.).

“CTGGCTTAATGATTTACTTTGTTTGGATCTTGCGAACTCCCGGAGTCACCTAGTGCAG”: the binding signal was 10600 fluorescence intensity (a.u.).

As to “TAAATTTAAATTTAGAACTTTAAATTTACTGGCTTATAAACGGAGTCACCTAGTGCAG”, the binding signal is 11600 fluorescence intensity (a.u.).

Take “AAAATAAAACTAAATTATCATGTGATTGTAGCATTATATACGGAGTCACCTAGTGCAG”: the binding signal is 10500 fluorescence intensity (a.u.).

For “ATTAGAAAGGACCAATCTAATCAAGCAGCTATTGACACAGCGGAGTCACCTAGTGCAG”, the binding signal is 8860 fluorescence intensity (a.u.).

On to “CTTGACATAGATGTGGAAAGGACACGATTTTAATTCAAAACGGAGTCACCTAGTGCAG”, for which the binding signal was 3280 fluorescence intensity (a.u.).

“CATCTAATTTCTACGTATTTTCTGTGGTCCTATCAAATGACGGAGTCACCTAGTGCAG”: the binding signal is 6500 fluorescence intensity (a.u.).

As to “TCCAAATTTAAGGTTGAAAATTCAAATTTTGGCTGATAAGCGGAGTCACCTAGTGCAG”, the binding signal is 4410 fluorescence intensity (a.u.).

Consider “CTTCAATTGAGATGACCAATTTAGGACACAAGACAAAGCCCGGAGTCACCTAGTGCAG”, for which the binding signal was 5930 fluorescence intensity (a.u.).

For “ATTTAAATAGATGAGATTAAATTTATCCTATGGCTTGAAACGGAGTCACCTAGTGCAG”, the binding signal is 23900 fluorescence intensity (a.u.).

“CTAATTAGTTTTGGTTAGTACTTATAATTTTGTCCTAATGCGGAGTCACCTAGTGCAG”: the binding signal was 15700 fluorescence intensity (a.u.).

As for “GTGATTTATATGTCTCATCCTATAGTAGGGCAGGAGGAGTCGGAGTCACCTAGTGCAG”, the binding signal was 6640 fluorescence intensity (a.u.).

Turning to “ATAATTGCTACTCTATCGACTCATATCGAGATGTCCACCCCGGAGTCACCTAGTGCAG”, the binding signal is 11900 fluorescence intensity (a.u.).

Take “GTTGATTTAAATTCCTAAGATGCTAAAATTGGCCAATAATCGGAGTCACCTAGTGCAG”: the binding signal was 19500 fluorescence intensity (a.u.).

With “GGTAAATTTTATCCAGTTCTATTATTTACGGTGTTTTCCTCGGAGTCACCTAGTGCAG”, the binding signal was 10600 fluorescence intensity (a.u.).

In the case of “TCCATCAATTTACCGTCAGCCACAGCGTTATACGCGTGAACGGAGTCACCTAGTGCAG”, the binding signal was 4650 fluorescence intensity (a.u.).

Take “CTTGTCATGATTAAGGTCCATCACAAAAGAATGCATGTCTCGGAGTCACCTAGTGCAG”: the binding signal was 5680 fluorescence intensity (a.u.).

In the case of “CTCATCCTCCTCAATCACCGTTCGACTCGCTGCTTCCCCTCGGAGTCACCTAGTGCAG”, the binding signal is 7760 fluorescence intensity (a.u.).

On to “AACTAATTTCAGTACAAAGACAGCCACTCCAGATATTAGGCGGAGTCACCTAGTGCAG”, for which the binding signal was 4720 fluorescence intensity (a.u.).

Consider “CACATGATTGATGTGAAATGATAAGAAATCAATGGACAAGCGGAGTCACCTAGTGCAG”, for which the binding signal is 42300 fluorescence intensity (a.u.).

Take “AATTTATAATTATATATTATAAGCTTGAATTTATTTATACCGGAGTCACCTAGTGCAG”: the binding signal is 15000 fluorescence intensity (a.u.).

For the sequence “CCGGAAATTATTATTTTAATCGGCGCGGTGTCCACTGGCACGGAGTCACCTAGTGCAG”, the binding signal was 13700 fluorescence intensity (a.u.).

On to “AATTGTCTATCAACAATGTTTGAGTAGACTATTCATACAGCGGAGTCACCTAGTGCAG”, for which the binding signal is 4060 fluorescence intensity (a.u.).

Regarding “TTACAAGACTTTCAATTATTATCCACATTTATATAGATGTCGGAGTCACCTAGTGCAG”, the binding signal is 7150 fluorescence intensity (a.u.).

For the sequence “CTTTCCATTATATACTTGTCACTGGGTGCTATACTGCTTTCGGAGTCACCTAGTGCAG”, the binding signal is 3290 fluorescence intensity (a.u.).

“TGTAACTCAACTAATTGAGTAACTTATGGTGGAACATGTTCGGAGTCACCTAGTGCAG”: the binding signal is 19300 fluorescence intensity (a.u.).

As to “GCGTTTGATTTGTTAGTAGCTCGTTGAGTGCATACAATGACGGAGTCACCTAGTGCAG”, the binding signal was 17300 fluorescence intensity (a.u.).

For “CACATGCATTGACTAATAATTAATACATGTGGGTTGGACCCGGAGTCACCTAGTGCAG”, the binding signal was 7290 fluorescence intensity (a.u.).

Consider “AATAGGGTCAATTACTGAATCCAACAATGTTCTCGCAGCTCGGAGTCACCTAGTGCAG”, for which the binding signal is 5180 fluorescence intensity (a.u.).

With “GAATCATAGAAAATTAATTATATGAGACAGAGATAGTATTCGGAGTCACCTAGTGCAG”, the binding signal is 4550 fluorescence intensity (a.u.).

“CCAATGATGAATGGAATACAATAATCTCGATATCTTCGTACGGAGTCACCTAGTGCAG”: the binding signal was 4840 fluorescence intensity (a.u.).

Regarding “GAGAAGATTTTACATGATGTAAGTATGGCATACGGATGTTCGGAGTCACCTAGTGCAG”, the binding signal was 3280 fluorescence intensity (a.u.).

For the sequence “TCACACATCAATTTTCCAATTTTGCGCTGCTCTTTCCTCACGGAGTCACCTAGTGCAG”, the binding signal was 4690 fluorescence intensity (a.u.).

In the case of “TGATTCTATCAATTAGTAATGTCTCAAGGAGCTAAAATTTCGGAGTCACCTAGTGCAG”, the binding signal is 10600 fluorescence intensity (a.u.).

For “GTGATTGAGTTTGAAAATGTAAACAATATATGAATAGATTCGGAGTCACCTAGTGCAG”, the binding signal is 20800 fluorescence intensity (a.u.).

With “TTGTGATTGCTTGTAGGTTTCATGGACTGAAAACTAGAACCGGAGTCACCTAGTGCAG”, the binding signal was 45800 fluorescence intensity (a.u.).

As to “GGTTGATTATTCCGTCGGCGTCAGCCATCAGGTGCATCACCGGAGTCACCTAGTGCAG”, the binding signal is 27900 fluorescence intensity (a.u.).

As to “GAGAGAAATTTATTTTCAATTATCTTCCCCATAGGTATTGCGGAGTCACCTAGTGCAG”, the binding signal was 8950 fluorescence intensity (a.u.).

With “GTGAGTGATTGTGAATGCATGGTATTTATAGACTCGGTTTCGGAGTCACCTAGTGCAG”, the binding signal is 43600 fluorescence intensity (a.u.).

Regarding “ATAAACCATTAGTAATTGACCTCACAGGTATAAAATCCTGCGGAGTCACCTAGTGCAG”, the binding signal was 7560 fluorescence intensity (a.u.).

Consider “TGTCACATTCAATCTATTAGGCCATGTCTAACGCATCATGCGGAGTCACCTAGTGCAG”, for which the binding signal is 11000 fluorescence intensity (a.u.).

For “CTTGATTGTTGCTGGATAAATAGCTTCTATAACTGCAAGACGGAGTCACCTAGTGCAG”, the binding signal is 46200 fluorescence intensity (a.u.).

On to “ATCTGAAAGATTGAGTTTTGAGTCTGAACTCTGAACTCTGCGGAGTCACCTAGTGCAG”, for which the binding signal was 9720 fluorescence intensity (a.u.).

The record behind these values is PMC7819943, “Rice protein-binding microarrays: a tool to detect cis-acting elements near promoter regions in rice”.
